About 200 (0.44%) of roughly 45,000 compounds were called active. About 7% were inconclusive and are not listed. Calls follow the shape of the dose curve; as a rule, active = well fitted activation curve with a large enough effect; inconclusive = small, poorly fitted or top-dose-only effect; inactive = no such curve, though single readings can be large or run the other way. This is one part of the list.
Assay: qHTS of TDP-43 Inhibitors: NCGC Sytravon Library Screen; also: nearly all actives have a fitted effect of over 55% in size; as to growth rescue (activation): 0% is about no effect
Conditions: yeast TDP-43 toxicity rescue, BacTiter-Glo growth, 24 h; series mostly up to 46.1 µM; growth rescue (activation): at the top concentration
Method in brief: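 TDP-43-expressing yeast, pregrown in raffinose, seeded at OD600 0.02 in galactose medium with compound for 24 hr at 30 deg C. Growth read by BacTiter-Glo luminescence, so rescue of toxicity appears as activation.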
Potency is read from the fitted curve at half-maximal effect.

Compound | growth rescue (activation) | Potency
CCC(=O)N(CCC(c1ccc(C)cc1)c1ccco1)Cc1ccco1 (configuration not stated) | inactive: 21.8% | 
O=c1c2c([nH]c3ccccc13)CCCC2 | inactive: -22% | 
Cc1cc(C)c(N(CC(=O)NCc2ccccc2)C(=O)c2csnn2)c(C)c1 | inactive: -2.97% | 
CC(C)N(CC(O)COc1ccc(CC(N)=O)cc1)CC(O)COc1ccc(CC(N)=O)cc1 (configuration not stated) | inactive: -22.3% | 
O=S(=O)(NCCC(c1ccc(F)cc1)c1ccco1)c1ccccc1 (configuration not stated) |  | active: 17.8 µM
N#Cc1nc(-c2ccc([N+](=O)[O-])cc2)oc1N1CCCCC1 | inactive: 7.05% | 
NC(=O)c1nsc(C(=O)N(CC(=O)NCc2ccccc2)c2ccc(F)cc2)c1N | inactive: -5.6% | 
O=C(NC1CCCC1)C(c1cccnc1)N(C(=O)c1ccco1)c1cccc(F)c1 (configuration not stated) | inactive: 9.92% | 
N#Cc1c(-c2ccc(F)cc2)ccnc1N1CCOCC1 | inactive: 23.2% | 
COc1cccc(N2C(=O)C3CCCN3C2c2cccs2)c1 (configuration not stated) | inactive: -8.22% | 
O=C(/C=C/c1ccco1)NC(=S)Nc1ccc(C(=O)O)cc1 | inactive: 13.7% | 
Cc1nn(-c2ccccc2)c(N)c1N=Nc1cccc(S(=O)(=O)N2CCOCC2)c1 | inactive: 27.9% | 
Fc1ccccc1C1CCN(Cc2nc(CC3CC3)no2)C1 (configuration not stated) | inactive: -1.54% | 
N#C/C(=C\c1cn(Cc2ccc(C#N)cc2)c2ccccc12)C(=O)NCc1cccs1 | inactive: 10.7% | 
CNCC(O)CN1CCN(c2ccccc2OC)CC1 (configuration not stated) | inactive: -12.4% | 
O=C(CSc1nnnn1-c1ccc(C(=O)O)cc1)NC1CCCCC1 | inactive: 4.26% | 
Cc1nn(-c2ccccc2)c(Cl)c1C(=O)NCc1ccccc1F | inactive: 2.83% | 
Cn1c(SCC(=O)NCCc2ccccc2)nnc1C1CCCCC1 | inactive: 5.83% | 
O=C(Nc1ccccc1-c1nnc(SCc2ccc(Cl)cc2Cl)o1)c1ccccc1 | inactive: -5.2% | 
COc1ccc(CC(=O)NCc2nnc(SCc3ccc([N+](=O)[O-])cc3)n2C)cc1 | inactive: 10.1% | 
O=C(OCC(=O)N(Cc1ccccc1)C1CCS(=O)(=O)C1)c1cc2c(s1)CCCC2 (configuration not stated) | inactive: -2.86% | 
COc1ccc(N2C(=O)CSC2c2ccc(F)c(F)c2)cc1 (configuration not stated) | inactive: 3.33% | 

Compound | growth rescue (activation) | Potency
CCN(CC(=O)Nc1cc(C)nn1-c1nc(C)cc(C)n1)Cc1ccccc1 | inactive: -7.31% | 
CN(C)S(=O)(=O)c1cc(NC(=O)COC(=O)c2ccc3c(c2)OCO3)ccc1Cl | inactive: -5.68% | 
COc1ccc(Cl)cc1N(CC(=O)NC1CC1)S(=O)(=O)c1ccc(C)c([N+](=O)[O-])c1 | inactive: 9.73% | 
Brc1ccccc1-c1nnc(COc2ncnc3ccccc23)o1 | inactive: -7.25% | 
O=C(NCC1COc2ccccc2O1)c1cccc(S(=O)(=O)N2CCOCC2)c1 (configuration not stated) | inactive: 11.6% | 
COc1ccc(CN(C)CC(O)COC(c2ccc(OC)cc2)c2ccc(OC)cc2)cc1 (configuration not stated) | inactive: 5.5% | 
Cc1c(OCC(=O)N(C)C)ccc2c(-c3ccccc3)cc(=O)oc12 | inactive: 11.1% | 
N#C/C(=C(/O)CCl)c1nc(-c2ccccc2)cs1 | inactive: 22.2% | 
O=C(O)CCCCCn1c(SCC(=O)Nc2ccc(F)cc2)nc2ccsc2c1=O | inactive: -4.27% | 
CC[n+]1ccc(C)c2cc(SC(F)(F)F)ccc21 | inactive: 2.77% | 
COCCCNc1ccn2nc(-c3cc(OC)c(OC)c(OC)c3)cc2n1 | inactive: 8.39% | 
CC(=O)c1ccc(OCC(O)CN2CCc3ccccc3C2)cc1 (configuration not stated) | inactive: -0.584% | 
O=C(CSc1nc2c(c(=O)n1-c1ccc(Cl)cc1)SCC2)NCC1CCCO1 (configuration not stated) | inactive: 2.45% | 
COCCCN1C(=O)C(=O)/C(=C(/O)c2ccc(OC)cc2)C1c1cccc(OC)c1 (configuration not stated) | inactive: 29.6% | 
CC(=O)NC(C)(c1ccccc1)c1nc(-c2cncnc2)cs1 (configuration not stated) | inactive: 10.4% | 
CCOc1ccc(C(=O)NCc2ccc3c(c2)OCO3)cc1 | inactive: 30% | 
CCOc1ccc(N(CC(=O)NCC2CCCO2)C(=O)CCC(=O)Nc2nccs2)cc1 (configuration not stated) | inactive: 0.31% | 
Cc1ccc(S(=O)(=O)NCC(=O)Nc2ccc3c(c2)OCCO3)cc1 | inactive: 0.789% | 
CCc1ccc(NC(=S)N(CCCN2CCOCC2)Cc2ccco2)cc1 | inactive: 2.86% | 
Cc1cccc(N2CCN(C(=O)c3ccc4nccnc4c3)CC2C)c1 (configuration not stated) | inactive: 21.6% | 
O=C(CCS(=O)(=O)c1ccc(Br)cc1)Nc1cc(F)ccc1F | inactive: 18.7% | 
CCC(C)NC(=O)CSc1n[nH]c(=O)n1CCc1ccccc1 (configuration not stated) | inactive: 9.74% | 

Compound | growth rescue (activation) | Potency
Cc1ccc(S(=O)(=O)Nc2cccc3c2CCCC3)cc1 | inactive: 5.58% | 
CCc1nc2c(OCc3ccccc3C)cccn2c1N(C)C(=O)CC(C)C | inactive: 0.687% | 
CN(C)CC(=O)N1c2ccccc2Sc2ccc(Cl)cc21 | inactive: 0.204% | 
CC(=O)Nc1ccc(NC(=O)c2cc(-c3ccc(F)cc3C)n[nH]2)cc1 | inactive: -1.95% | 
CCC1(c2ccc(Cl)cc2)NC(=O)N(CC(=O)NCc2ccc(F)cc2)C1=O (configuration not stated) | inactive: 7.53% | 
COc1ccc(OC)c(C=NNC(=O)c2ccc(NS(=O)(=O)c3cccs3)cc2)c1 | inactive: 1.26% | 
Cn1nnnc1SCC(=O)N(C1CCCCC1)C1CCCCC1 | inactive: 2.96% | 
COc1ccccc1N(CC(=O)NC1CCCC1)C(=O)c1oc(C(C)(C)C)cc1C | inactive: 26.6% | 
COc1cc(-c2nc3sccn3c2Nc2c(C)cccc2C)ccc1O | inactive: 2.72% | 
C/C(=N\NC(=O)Cc1cccn1C)c1cccs1 | inactive: 20.9% | 
Cc1nn2c(Nc3ccc(F)cc3)c3c(nc2c1-c1ccccc1)CCC3 | inactive: 8.18% | 
CC(=O)CC1(OC(C)=O)C(=O)N(C)c2ccccc21 (configuration not stated) | inactive: -4.53% | 
CC(c1nc2scc(-c3ccccc3)c2c(=O)[nH]1)N1CCN(CC(=O)NC2CC2)CC1 (configuration not stated) | inactive: -15.7% | 
O=C(NCc1ccc(F)cc1)C1CCN(S(=O)(=O)N2CCCC2)CC1 | inactive: -0.919% | 
COc1ccc(NC(=O)c2ccc(OCc3c(C)noc3C)c(OC)c2)cn1 | inactive: 2.05% | 
O=C(CN1CCN(c2ccc(O)cc2)CC1)Nc1cc(S(=O)(=O)N2CCOCC2)ccc1Cl | inactive: 8.99% | 
CCCCn1c(=S)[nH]c2ncccc2c1=O | inactive: 11.5% | 
CCOC(=O)c1c(NC(=O)CN2C(=O)NC3(CCCCC3)C2=O)sc(C)c1-c1ccc(C)cc1 | inactive: -0.841% | 
CCN(CC(=O)NCc1ccc(F)cc1)CC(=O)Nc1ccc(Br)cc1F | inactive: -17.2% | 
Cc1ccccc1N1CC(C(=O)N2CC(C)OC(C)C2)CC1=O (configuration not stated) | inactive: 10.9% | 
O=C(NC(c1ccc(F)cc1)c1ccc2ccccc2n1)C1CCN(CCOc2ccc(F)cc2)CC1 (configuration not stated) | inactive: 1.5% | 
Cc1c(/C(O)=C2\C(=O)C(=O)N(CCN(C)C)C2c2ccccc2)cnn1-c1ccccc1 (configuration not stated) | inactive: -3.85% | 

Compound | growth rescue (activation) | Potency
O=C(O)c1ccc(N/N=C/c2ccc3c(c2)OCO3)cc1 | inactive: -37.4% | 
O=C(OC1Cn2c(=O)ccc(=O)n2C1)c1ccc([N+](=O)[O-])cc1 | inactive: 8.64% | 
CCS(=O)(=O)NCc1cn2ccsc2n1 | inactive: 3.52% | 
Cc1ccc(S(=O)(=O)NCC(=O)Nc2cccnc2)cc1C | inactive: -2.73% | 
Cc1ccc(CN2CCN(Cc3cn(C)nc3-c3ccccc3)CC2CCO)o1 (configuration not stated) | inactive: 3.69% | 
COc1ccccc1N1CCN(C2CCCN(C(=O)CCc3ccccn3)C2)CC1 (configuration not stated) | inactive: 11.2% | 
O=C(CCNC(=O)c1ccccc1Cl)NN=Cc1ccco1 | inactive: 19.4% | 
CCOC(=O)c1ccc(CNC(=O)CSc2nnnn2-c2ccc(Cl)cc2)o1 | inactive: 25.7% | 
CC(C)CNC1=C(C(=S)Nc2ccccc2)C(=O)CC(C)(C)C1 | inactive: 26.9% | 
CC(C)C1NC(=S)N(C2CCCCC2)C1=O (configuration not stated) | inactive: 20.7% | 
CCc1nnc(NC(=O)CSc2sc3c(O)cc(=O)[nH]c3c2C#N)s1 | inactive: 6.45% | 
CCNc1nc(NCC)nc(N(C#N)C(C)C)n1 | inactive: 19.3% | 
CCOC(=O)N1CCN(C(=O)COC(=O)c2ccc(O)cc2O)CC1 | inactive: -13.6% | 
COc1ccc(S(=O)(=O)N2CCOCC2)cc1NC(=O)CSc1nnc(NC2CC2)s1 | inactive: 8.11% | 
COc1ccccc1C(=O)N1CCN(S(=O)(=O)c2ccccc2)CC1 | inactive: -0.521% | 
COc1ccccc1NC(=O)/C(C#N)=C/c1cc([N+](=O)[O-])ccc1N1CCCC1 | inactive: -16.5% | 
Fc1nc(F)c(F)c(NCCCNc2c(F)c(F)nc(F)c2F)c1F | inactive: 27.9% | 
COc1ccc(NC(=O)C(NC(=O)c2ccc(=O)[nH]c2)c2ccc(OC)cc2)cc1 (configuration not stated) | inactive: 10.2% | 
Cc1cc(Br)cc(C)c1NC(=O)c1ccc(C#N)cc1F | inactive: 5.58% | 
Cc1onc(C(=O)NC(C)c2ccccc2)c1[N+](=O)[O-] (configuration not stated) | inactive: -0.142% | 
COc1cccc(CN(C)C(c2ccccc2)c2ccccc2)c1OC | inactive: -10.1% | 
COc1ccc(-c2nc3cc(NC(=S)NC(=O)Cc4ccccc4)ccc3o2)cc1 | inactive: 13.1% | 

Compound | growth rescue (activation) | Potency
CC1(C(=O)Nc2cccnc2)Cc2c(-c3ccc4c(c3)OCO4)ccnc2O1 (configuration not stated) | inactive: -0.0916% | 
CCCS(=O)(=O)NC(=O)C1(C)CCCN(C(=O)c2cc(-c3ccccc3)cs2)C1 (configuration not stated) | inactive: -8.33% | 
O=c1cc(-c2ccco2)oc2c1ccc1ccccc12 | inactive: 0.725% | 
OCCC1CN(Cc2cccc(OC3CCCC3)c2)CCN1Cc1ccsc1 (configuration not stated) | inactive: 9.23% | 
CN(CCOc1ccccc1)C(=O)C1CCC(=O)N(CCc2ccc(Cl)cc2)C1 (configuration not stated) | inactive: 14.1% | 
CC(NC(=O)c1ccc([N+](=O)[O-])cc1Cl)C1CC2CCC1C2 (configuration not stated) | inactive: 34.6% | 
COc1ccc(OC)c(-n2c(-c3cccc(S(=O)(=O)N(C)C)c3)n[nH]c2=S)c1 | inactive: 3.15% | 
Fc1ccc(COc2ccccc2CNc2nn[nH]n2)cc1 | inactive: -2.34% | 
Cc1cccc(NC(=S)NC(=O)c2oc3ccccc3c2C)n1 | inactive: -0.905% | 
O=C(NCc1ccc(Cl)cc1)C1CCN(S(=O)(=O)c2cccc3nonc23)CC1 | inactive: -7.04% | 
O=C(COc1ccc(Cl)cc1)NNC(=O)c1ccc(=O)[nH]c1 | inactive: 8.03% | 
OC[C@@H]1CN(C2CCCC2)C[C@H](n2cnc3c(NC4CCC4)ncnc32)O1 | inactive: 12% | 
CC(C)c1nnc(NC(=O)CN(C)S(=O)(=O)c2ccc3c(c2)OCCO3)s1 | inactive: 9.58% | 
Cc1cc(C)c(CSc2nnnn2-c2ccc(C(=O)O)cc2)c(C)c1 | inactive: 5.69% | 
O=C(Cn1cnc2cc([N+](=O)[O-])ccc2c1=O)NC(=O)NCc1ccccc1 | inactive: -3.71% | 
CC1CCN(Cc2c(C(=O)N/N=C/c3ccccc3O)nnn2-c2nonc2N)CC1 | inactive: 13.3% | 
O=C(COC(=O)c1ccc(NS(=O)(=O)c2cccs2)cc1O)NC1CCCCC1 | inactive: 20.5% | 
COCCNc1nc(NCCN2CCNC2=O)c2sccc2n1 | inactive: -14.8% | 
CCCCOC(=O)C1=C(C)NC(=O)NC1c1ccc2c(c1)OCO2 (configuration not stated) | inactive: 4.11% | 

— PubChem BioAssay AID1347073 (National Center for Advancing Translational Sciences (NCATS), 2019)
